Source: article PMC4336329 (PLoS ONE, 2015)
Hit rate of the full screen: of about 310,000 compounds, about 2,200 (0.71%) showed an effect of 50% or more. Effects have a minus sign here. The list shows a part of the results.

target: human ether-à-go-go-related gene (hERG) potassium channel (human, UniProt Q12809); assay: primary screen, population patch clamp on CHO cells stably expressing hERG
Sequence (Q12809 whole entry, looked up): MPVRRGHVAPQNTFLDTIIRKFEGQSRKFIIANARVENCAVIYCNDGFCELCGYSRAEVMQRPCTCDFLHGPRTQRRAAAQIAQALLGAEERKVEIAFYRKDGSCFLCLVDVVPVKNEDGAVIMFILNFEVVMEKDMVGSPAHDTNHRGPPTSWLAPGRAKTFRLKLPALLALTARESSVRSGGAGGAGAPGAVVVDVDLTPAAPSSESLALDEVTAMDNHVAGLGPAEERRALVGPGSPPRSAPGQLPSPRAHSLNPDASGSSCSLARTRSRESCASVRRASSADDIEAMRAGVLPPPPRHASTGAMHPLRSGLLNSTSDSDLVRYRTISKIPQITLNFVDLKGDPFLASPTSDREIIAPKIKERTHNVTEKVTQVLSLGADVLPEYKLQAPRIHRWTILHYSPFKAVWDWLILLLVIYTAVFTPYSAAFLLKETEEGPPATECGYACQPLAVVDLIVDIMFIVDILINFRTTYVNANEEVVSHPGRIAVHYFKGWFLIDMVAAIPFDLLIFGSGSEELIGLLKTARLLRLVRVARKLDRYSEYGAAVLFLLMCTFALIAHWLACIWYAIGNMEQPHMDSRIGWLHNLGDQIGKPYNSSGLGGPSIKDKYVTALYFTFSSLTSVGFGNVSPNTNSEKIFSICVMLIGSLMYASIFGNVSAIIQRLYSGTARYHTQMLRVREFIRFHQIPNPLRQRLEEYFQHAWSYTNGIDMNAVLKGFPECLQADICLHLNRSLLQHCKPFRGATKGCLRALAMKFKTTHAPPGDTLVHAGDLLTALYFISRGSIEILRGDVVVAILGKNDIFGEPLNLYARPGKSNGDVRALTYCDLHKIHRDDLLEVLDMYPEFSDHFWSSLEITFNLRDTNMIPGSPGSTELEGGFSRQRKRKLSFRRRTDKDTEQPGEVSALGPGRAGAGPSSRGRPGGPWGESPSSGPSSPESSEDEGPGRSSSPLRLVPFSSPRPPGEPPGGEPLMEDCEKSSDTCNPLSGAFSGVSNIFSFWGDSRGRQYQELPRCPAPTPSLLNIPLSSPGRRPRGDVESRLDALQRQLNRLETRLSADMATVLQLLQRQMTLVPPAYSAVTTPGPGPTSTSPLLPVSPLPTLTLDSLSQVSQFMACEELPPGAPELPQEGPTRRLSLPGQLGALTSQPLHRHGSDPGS

Compound	hERG current change (%, negative = inhibition) at 1uM [%]
COc1ccc(-n2nc(C(=O)O)c3ccccc3c2=O)c(OC)c1	1.83
CC1(C)CC(=O)C(C=Nc2cccnc2)=C(O)C1	9.97
Cc1ccc(S(=O)(=O)N2CCC(C(=O)Nc3ccccc3N3CCCCC3)CC2)cc1	13.6
O=C(CNC(=O)c1ccccc1F)Nc1ccc2c(c1)CCC2	8.7
CCOC(=O)CSc1nc(-c2ccc(OC)cc2)ns1	7.52
CCCCCCCCc1nc(SCC(C)=O)n[nH]1	8.81
COC1=C/C(=C/c2c(N)n3nc(CC(=O)N4CCOCC4)sc3nc2=O)C=CC1=O	-2.6
O=C(c1cccnc1)N1CCCc2ccccc21	10.5
Cc1ccn(S(=O)(=O)c2ccc(C(C)(C)C)cc2)n1	4.21
CC(C)[C@H]1COCCS(=O)(=O)N1Cc1ccccc1	14.2
CCCCn1c(N)c(N(CCOC)C(=O)c2ccc(N(C)S(=O)(=O)c3ccc(C)cc3)cc2)c(=O)[nH]c1=O	6.19
O=C(NCc1ccco1)c1cnn2cccnc12	7.77
CSCCC(NC(=O)c1ccc(C(C)(C)C)cc1)C(=O)OCC(=O)N1CCCC1=O (centres unmarked)	18.3
O=C(OCc1ccccc1)C1=NNC2C(=O)N(c3ccc(Br)cc3)C(=O)C12 (centres unmarked)	7.43
CO/N=C\C(=N\Nc1ccc(OC)cc1)C(=O)c1ccccc1	17.7
CC(C)C[C@H](N)c1nnc(SCc2ccc(Cl)cc2)o1.Cl	13
O=C(NCCSc1ccccc1)c1ccc(CN2CCOCC2)cc1	-4.11
CCc1cc(C(=O)NNC(=S)NCC2CCCO2)cs1 (centres unmarked)	-0.997
CCn1c(C(C)NC(=O)c2ccc(Cl)cc2)n[nH]c1=S (centres unmarked)	12.8
Cc1ccc(S(=O)(=O)NCCSc2nnnn2C)cc1	0.0241

Compound	hERG current change (%, negative = inhibition) at 1uM [%]
C=C(C)C1CC=C(C)/C(=N/NC(=O)COc2cccc(C)c2)C1 (centres unmarked)	-2.43
COc1ccc(Nc2nc3ccccc3s2)cc1	13.2
COc1ccc(Cc2nc3ccc(C(=O)N4CCC[C@H]4CO)cc3o2)cc1	10.9
Cc1c(C)n(Cc2ccccc2)c2ncnc(NCCCO)c12	10.3
CCCCC/C=C/C1=CC(=O)C[C@H](c2ccc(OC)cc2)C1	8.54
CCCCn1c(N)c(N(CC(C)C)C(=O)c2cccc(OCc3ccccc3)c2)c(=O)[nH]c1=O	16.4
CC(=O)c1c(C)n([O-])c2ccccc2[n+]1=O	11.2
N#Cc1cc([N+](=O)[O-])ccc1NC(=O)COC(=O)C1CC2CCCC(C1)C2=O (centres unmarked)	-0.123
CCc1nc(SCC(=O)NCCc2ccccc2)c2c(=O)n(C)c(=O)n(C)c2n1	-7.58
CCN(C(=O)CSc1ncccc1C(=O)Oc1cccc([N+](=O)[O-])c1)c1cccc(C)c1	4.46
C=CCOc1c(Br)cc(/C=C(\C#N)C(N)=O)cc1OC	1.67
O=C(NCC(=O)N(c1ccc(F)cc1)C(C(=O)NC1CCCCC1)c1cccnc1)c1ccco1 (centres unmarked)	13
COc1cccc(/C=C2\Oc3cc(OC(=O)N4CCOCC4)ccc3C2=O)c1	14.1
CC(C)Cn1c(=O)c(C(=O)NCc2ccc3c(c2)OCO3)c(O)c2ccccc21	14.7
CC(=O)Nc1ccc(OCc2cnc(Cl)s2)cc1	9.07
COc1ccccc1CNC(=O)Cn1cc([N+](=O)[O-])ccc1=O	16.9
O=C(NC1CCCc2ccccc21)c1ccc(Br)cc1 (centres unmarked)	8.5
O=C(NCc1cccnc1)C(=O)C1C(=O)Nc2ccccc21 (centres unmarked)	8.93
CCCOc1ccc(CNC(=O)c2ccc3c(c2)N(CC)CCS3)cc1	-7.53
O=C(OCC(=O)N1c2ccccc2Sc2ccccc21)C1CC(=O)N(Cc2ccco2)C1 (centres unmarked)	11.1

Compound	hERG current change (%, negative = inhibition) at 1uM [%]
O=c1[nH]c2ccc(F)cc2[nH]c1=O	16.1
CCOc1ccc(OCCCC(=O)Nc2cc(Cl)ccc2-n2cncn2)cc1	-15.8
CCC(=O)NC1(Cc2ccc(O)cc2)CCCCC1	9.16
O=C(c1ccccc1)N(c1ccccc1)C1C=CS(=O)(=O)C1 (centres unmarked)	6.8
CCCOc1nc2c(c(=O)n(C)c(=O)n2C)n1C	-0.0628
CCCCOP(=O)(c1ccc(N(C)C)cc1)C(O)c1cc(OC)ccc1OC (centres unmarked)	15.6
CCCCc1cc(=O)oc2c(CN(C)C)c(O)c(Cl)cc12	7.87
O=C(N/N=C\c1ccccc1F)c1ccc(-c2ccccc2)cc1	12.2
Cc1cc(S(=O)(=O)NCCCN2CCOCC2)c(Cl)cc1Cl	6.96
N#CC1=C(N)Oc2n[nH]c(-c3ccccc3)c2C1c1ccsc1 (centres unmarked)	7.75
COc1ccc(-c2c(C#Cc3ccsc3)c3cc(-c4cccc5[nH]ccc45)ccc3n2C)cc1	11.7
CCOC(=O)c1cccc(NC(=O)c2cc3sccc3n2C)c1	-10.4
CCOCCCNC(=O)CCCOc1ccccc1	-4.54
COCCNC(=O)c1ccc2c(=O)n(Cc3ccco3)c(SCC(=O)NC3CCCCC3)nc2c1	-15.3
CC(=O)Nc1ccc(NC(=O)C(=O)c2cn(CC(=O)N3CCCCC3)c3ccccc23)cc1	9.75
CC(=O)Nc1cccc(NC(=O)CSc2nc3ccccc3o2)c1	-0.484
O=c1c(-c2n[nH]c(=S)n2-c2ccccc2)cccn1Cc1cccc(Cl)c1	15.8
CCCCc1nnc(NC(=O)CCSc2ccccc2)s1	-2.45
CCc1ccc(N=CC2=C(O)CC(c3ccco3)CC2=O)cc1 (centres unmarked)	6.9
